Results as given in US6410566B1, “Cyclic amine derivatives and their use as drugs” (Teijin Limited, priority 2000, dated 2002).
pIC50: −log10 of the molar value. Some results were stated once for a whole list of compounds, not compound by compound. For some of these results: At least one compound was matched to its structure with a doubt left.

tested on: THP-1 cells; assay: Inhibition of cell chemotaxis caused by MCP-1; assay type: cell-based, human; conditions: MCP-1 20 ng/mL, read-out: inhibition of cell migration IC50
Procedure: Measurement of Inhibition of Cell Chemotaxis
In order to determine the inhibition of cell chemotaxis by the compounds of this invention, we measured cell chemotaxis caused by monocyte chemotactic factor MCP-1 using the human monocytic leukemia cell line THP-1 as the chemotactic cell according to the method of Fall et al. (J. Immunol. Methods, 190, 33,239-247). 2×10^6 cells/mL of THP-1 cells (suspended in RPMI-1640 (Flow Laboratories Co.)+10% FCS) was placed in the upper chamber (200 μL) of a 96 well micro-chemotaxis chamber (Neuroprobe; registered tradename), and human recombinant MCP-1 in a same solution (Peprotech Co.) at a final concentration of 20 ng/mL was placed in the lower chamber, with a polycarbonate filter (PVP-free, Neuroprobe; registered tradename) placed between the two chambers. These were incubated at 37° C. for 2 hr in 5% CO2.
The filter was removed, and the cells which had migrated to the underside of the filter was fixed, stained using Diff Quick (Kokusai Shiyaku Co.) and then quantitated using a plate reader (Molecular Device Co.) at a wavelength of 550 nm to determine the index of cell migration as a mean of 3 wells. In addition, test compounds were placed in the upper and lower chambers along with THP-1 and MCP-1, respectively, and the inhibition of cell migration (inhibition IC50 (μM)) was determined.

pIC50, > 7.00:
CSc1ccc(CN2CCC(CNC(=O)CNC(=O)c3cc(C(F)(F)F)ccc3N)CC2)cc1 [compound 1664]
Cc1ccc(CN2CC[C@@H](NC(=O)CNC(=O)c3ccc(C(C)(C)C)o3)C2)cc1 [compound 1295]
C=Cc1ccc(CN2CCC(NC(=O)CNC(=O)c3cccc(C(F)(F)F)c3)C2)cc1 (stereo not shown) [compound 1395]
O=C(CNC(=O)c1cccc(C(F)(F)F)c1)NC1CCN(Cc2ccc(Br)cc2)C1 (stereo not shown) [compound 311]
Cc1ccc(CN2CCC(NC(=O)CNC(=O)c3cc(C(F)(F)F)ccc3N)C2)cc1N (stereo not shown) [compound 2129]
O=C(CNC(=O)c1cccc(C(F)(F)F)c1)NC1CCN(Cc2ccc(Cl)cc2)C1 (racemic) [compound 4]
O=C(CNC(=O)c1cc(F)cc(C(F)(F)F)c1)NC1CCN(Cc2ccc3c(c2)OCO3)C1 (stereo not shown) [compound 1532]
Nc1ccc(C(F)(F)F)cc1C(=O)NCC(=O)N[C@@H]1CCN(Cc2ccc3c(c2)OCO3)C1 [compound 1703]
COc1ccc(CN2CC[C@@H](NC(=O)CNC(=O)c3cc(C(F)(F)F)ccc3N)C2)cc1O [compound 1776]
Cc1ccc(CN2CCC(CNC(=O)CNC(=O)c3cc(C(F)(F)F)ccc3N)CC2)cc1 [compound 1778]
O=C(CNC(=O)c1cccc(C(F)(F)F)c1)NC1CCN(Cc2ccc3c(c2)OCO3)C1 (stereo not shown) [compound 312]
Cc1ccc(CN2CCC(CNC(=O)CNC(=O)c3cc(F)c(F)cc3N)CC2)cc1 [compound 1794]
COc1cc(CN2CC[C@@H](NC(=O)CNC(=O)c3cccc(C(F)(F)F)c3)C2)ccc1O [compound 1310]
CCc1ccc(CN2CCC(NC(=O)CNC(=O)c3cccc(C(F)(F)F)c3)C2)cc1 (stereo not shown) [compound 1393]
Cc1ccc(CN2CC[C@@H](NC(=O)CNC(=O)c3cc(C(F)(F)F)ccc3N)C2)c(C)c1 [compound 1699]
O=C(CNC(=O)c1cccc(C(F)(F)F)c1)N[C@@H]1CCN(Cc2ccc3c(c2)CCO3)C1 [compound 1308]
COc1ccc(CN2CCC(NC(=O)CNC(=O)c3cccc(C(F)(F)F)c3)C2)cc1 (stereo not shown) [compound 298]
Cc1ccc(CN2CCC(NC(=O)CNC(=O)c3cccc(S(=O)(=O)c4ccccc4)c3)C2)cc1 (stereo not shown) [compound 1376]
Nc1ccc(C(F)(F)F)cc1C(=O)NCC(=O)NCC1CCN(Cc2ccc3c(c2)OCO3)CC1 [compound 1779]
CCc1ccc(CN2CCC(CNC(=O)CNC(=O)c3cc(F)c(F)cc3N)CC2)cc1 [compound 1668]
Cc1ccc(CN2CCC(NC(=O)CNC(=O)c3cc(I)ccc3N)C2)cc1 (stereo not shown) [compound 1228]
COc1ccc(CN2CCC(NC(=O)CNC(=O)c3cc(F)cc(C(F)(F)F)c3)C2)cc1 (stereo not shown) [compound 1531]
CSc1ccc(CN2CC[C@H](NC(=O)CNC(=O)c3cccc(C(F)(F)F)c3)C2)cc1 [compound 1119]
CC(C)c1ccc(CN2CCC(NC(=O)CNC(=O)c3cc(OC(F)(F)F)ccc3N)C2)cc1 (stereo not shown) [compound 1899]
CC(C)c1ccc(CN2CCC(CNC(=O)CNC(=O)c3cc(Cl)ccc3N)CC2)cc1 [compound 1436]
Cc1ccc(CN2CCC(NC(=O)CNC(=O)c3cccc(Br)c3)C2)cc1 (stereo not shown) [compound 1205]
Cc1noc(C)c1CN1CCC(NC(=O)CNC(=O)c2cc(I)ccc2N)C1 (stereo not shown) [compound 1236]
O=C(CNC(=O)c1cccc(C(F)(F)F)c1)NC1CCN(Cc2ccc(O)cc2)C1 (stereo not shown) [compound 318]
Cc1ccc(CN2CCC(NC(=O)CNC(=O)c3cccc(SC(F)(F)F)c3)C2)cc1 (stereo not shown) [compound 1607]
Cc1ccc(CN2CCC(NC(=O)CNC(=O)c3cc([N+](=O)[O-])ccc3N)C2)cc1 (stereo not shown) [compound 1179]
CSc1ccc(CN2CCC(CNC(=O)CNC(=O)c3cc(F)c(F)cc3N)CC2)cc1 [compound 1666]
CN(C)c1ccc(CN2CC[C@@H](NC(=O)CNC(=O)c3cc(C(F)(F)F)ccc3N)C2)cc1 [compound 2087]
O=C(CNC(=O)c1cccc(C(F)(F)F)c1)NCC1CCN(Cc2ccc(C(=O)Nc3ccccc3)cc2)CC1 [compound 909]
COc1ccc(CN2CC[C@@H](NC(=O)CNC(=O)c3cc(C(F)(F)F)ccc3N)C2)cc1 [compound 1702]
COc1ccc(CN2CCC(CNC(=O)CNC(=O)c3cc(C(F)(F)F)ccc3N)CC2)cc1N [compound 2144]
O=C(CNC(=O)c1cccc(C(F)(F)F)c1)NCC1CCN(Cc2ccc(F)cc2)CC1 [compound 886]
Nc1ccc(I)cc1C(=O)NCC(=O)NC1CCN(Cc2ccc(Cl)cc2)C1 (stereo not shown) [compound 1220]
Nc1ccc([N+](=O)[O-])cc1C(=O)NCC(=O)N[C@@H]1CCN(Cc2ccc(Cl)cc2)C1 [compound 1085]
Cc1cc(Cl)ccc1CN1CCC(NC(=O)CNC(=O)c2cc(C(F)(F)F)ccc2N)C1 (stereo not shown) [compound 2137]
Nc1ccc(C(F)(F)F)cc1C(=O)NCC(=O)NC1CCN(Cc2ccc(Cl)cc2)C1 (stereo not shown) [compound 1583]
Nc1ccc(OC(F)(F)F)cc1C(=O)NCC(=O)NCC1CCN(Cc2ccc(Cl)cc2)CC1 [compound 1601]
Nc1cc(F)c(F)cc1C(=O)NCC(=O)NCC1CCN(Cc2ccc(Cl)cc2)CC1 [compound 1245]
Nc1ccc(OC(F)(F)F)cc1C(=O)NCC(=O)NC1CCN(Cc2ccc(Br)cc2)C1 (stereo not shown) [compound 1661]
O=C(CNC(=O)c1cccc(C(F)(F)F)c1)NC1CCN(Cc2ccc3c(c2)OCCO3)C1 (stereo not shown) [compound 1165]
Cc1cc(CN2CCC(NC(=O)CNC(=O)c3cc(OC(F)(F)F)ccc3N)C2)ccc1O (stereo not shown) [compound 1916]
C=Cc1ccc(CN2CCC(NC(=O)CNC(=O)c3cc(OC(F)(F)F)ccc3N)C2)cc1 (stereo not shown) [compound 1909]
Nc1ccc(C(F)(F)F)cc1C(=O)NCC(=O)NCC1CCN(Cc2ccc(Cl)cc2)CC1 [compound 1600]
CCc1ccc(CN2CCC(NC(=O)CNC(=O)c3cc(C(F)(F)F)ccc3N)C2)cc1 (stereo not shown) [compound 1708]
Cc1noc(C)c1CN1CCC(NC(=O)CNC(=O)c2cccc(-c3ccccc3)c2)C1 (stereo not shown) [compound 1382]
CSc1ccc(CN2CC[C@@H](NC(=O)CNC(=O)c3cc(C(F)(F)F)ccc3N)C2)cc1 [compound 1707]
Nc1ccc(OC(F)(F)F)cc1C(=O)NCC(=O)NC1CCN(Cc2ccc3c(c2)CCO3)C1 (stereo not shown) [compound 1902]
CC(=O)Nc1ccc(Br)cc1C(=O)NCC(=O)N[C@@H]1CCN(Cc2ccc(C)cc2)C1 [compound 1352]
Cc1cc(CN2CCC(NC(=O)CNC(=O)c3cccc(C(F)(F)F)c3)C2)ccc1O (stereo not shown) [compound 1713]
Nc1ccc(C(F)(F)F)cc1C(=O)NCC(=O)N[C@@H]1CCN(Cc2ccc3c(c2)CCO3)C1 [compound 1706]
Cc1noc(C)c1CN1CCC(NC(=O)CNC(=O)c2cccc(C(F)(F)F)c2)C1 (stereo not shown) [compound 329]
Cc1cc(CN2CC[C@@H](NC(=O)CNC(=O)c3cc(C(F)(F)F)ccc3N)C2)ccc1O [compound 1803]
Nc1ccc(OC(F)(F)F)cc1C(=O)NCC(=O)NC1CCN(Cc2ccc(O)cc2)C1 (stereo not shown) [compound 1907]

target: T1, binding of human MIP-1α to THP-1 cells (Homo sapiens, UniProt P32246); assay: Inhibition of MIP-1α binding to THP-1 cells; conditions: at 10 μM
T1 construct: endogenous in cells; host or cells: THP-1 (human monocytic leukemia cell line), whole cells
T1 sequence (P32246 1-355): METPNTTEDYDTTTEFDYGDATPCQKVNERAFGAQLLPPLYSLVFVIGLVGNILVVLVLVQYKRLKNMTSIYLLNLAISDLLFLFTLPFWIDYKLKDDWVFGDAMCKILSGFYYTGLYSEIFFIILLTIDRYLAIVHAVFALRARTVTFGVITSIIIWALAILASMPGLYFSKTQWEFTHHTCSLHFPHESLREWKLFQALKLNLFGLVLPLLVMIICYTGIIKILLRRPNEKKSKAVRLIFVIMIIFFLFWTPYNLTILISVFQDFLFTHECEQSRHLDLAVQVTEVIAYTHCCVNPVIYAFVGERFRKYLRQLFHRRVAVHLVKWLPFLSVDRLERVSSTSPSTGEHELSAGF

Inhibition of MIP-1α binding to THP-1 cells, 20-50%:
CC(C)(C)c1ccc(C(=O)NCC(=O)NCC2CCN(Cc3ccc(Cl)cc3)CC2)cc1 [compound 514]
O=C(NCC1CCN(Cc2ccc(Cl)cc2)CC1)C1CCCN1C(=O)c1cccc(OC(F)(F)F)c1 (stereo not shown) [compound 696]
COCC(NC(=O)c1cc(C(C)(C)C)oc1C)C(=O)NCC1CCN(Cc2ccc(Cl)cc2)CC1 (stereo not shown) [compound 824]
Cc1ccc(C(=O)NCC(=O)NCC2CCN(Cc3ccc(Cl)cc3)CC2)s1 [compound 483]
CC(C)C(NC(=O)c1cccc(C(F)(F)F)c1F)C(=O)NCC1CCN(Cc2ccc(Cl)cc2)CC1 (stereo not shown) [compound 629]

Inhibition of MIP-1α binding to THP-1 cells, > 80%:
CC(C)C(NC(=O)c1cccc(N(C)C)c1)C(=O)NCC1CCN(Cc2ccc(Cl)cc2)CC1 (stereo not shown) [compound 622]
COCC(NC(=O)c1cc(C)oc1C(F)(F)F)C(=O)NCC1CCN(Cc2ccc(Cl)cc2)CC1 (stereo not shown) [compound 826]
